From PubChem BioAssay (NCI)
Several values for one entry are separate records, joined by “and”; a condition that tells them apart may be missing. Equal entries are not always repeated.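 Exposure lasted 48 hours, with cells grown in 96-well plates and compounds tested at five concentrations. GI50 marks 50% less growth. TGI denotes the concentration required for complete inhibition of growth.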 Peptide text beside a SMILES is read from it. * marks the point of attachment. X24 = Clc1c(Cl)c(Cl)c(O*)c(Cl)c1Cl; Boc = CC(C)(C)OC(=O)*; OBn = c1ccc(CO*)cc1; Bn = c1ccc(C*)cc1

Each compound was assayed on NCI-H322M lung (assay: DTP human tumour cell line panel, 48 h).
`COc1ccc(OC)c(-c2cc(-c3ccccc3)nn2-c2ccc(S(=O)(=O)NC(C)=O)cc2)c1` gave a GI50 of 18.4 µM and a TGI of 36.2 µM. Compound `CSc1nc2c(c(O)c(C)c(=O)n2C2OC(COC(C)=O)C(OC(C)=O)C(OC(C)=O)C2OC(C)=O)c(=O)n1C` (stereo unspecified) has a TGI greater than 100 µM. Work on `CCN(CCCCCCCCCCN1CC(=O)N(CCCCCCCCCCN(CC)Cc2ccccc2OC)CC1=O)Cc1ccccc1OC` yielded a GI50 of 3.51 µM and a TGI of 12.6 µM. `Cc1nnc2n1-c1ccccc1N(Cc1ccccc1)CC2` gave a TGI greater than 100 µM. Work on `O=C1c2ccccc2N2OC3(N4CCCC4)CCCC3C12c1ccccc1` (stereo unspecified) yielded a TGI greater than 100 µM. `Cc1cc([N+](=O)[O-])c(C)c2c1[nH]c1ccc(/C(CCC3CCCC3)=N\N)cc12` gave a TGI of 31 µM. `CCOC(=O)Cn1nnc2cc(Nc3c(C)[n+]([O-])c4cc(F)c(OCC)cc4[n+]3[O-])ccc21` gave a TGI greater than 100 µM. `O=C(c1ccccc1)c1c(CC(O)c2cccnc2)n(C(=O)c2ccccc2)c2ccccc12` (stereo unspecified) showed a TGI greater than 100 µM. With `O=C1N/N=C\c2ccc(cc2)OCc2cccc(n2)COc2ccc(cc2)/C=N\NC1=O` the TGI was greater than 25 µM. `S=c1[nH]nc(Cn2c3ccc(Br)cc3c3nc4ccccc4nc32)n1C1CCCCC1` gave a TGI greater than 100 µM. `Cc1ccc(C(=O)Nc2ccc(CN3CCN(C)CC3)c(C(F)(F)F)c2)cc1C#Cc1cnc(N)c2ccc(F)cc12` was tested, and the GI50 was 0.462 µM and the TGI was 2.16 µM. `COc1cc(C2c3cc4c(cc3[C@@H](Nc3ccc(N(C)C)cc3)[C@H]3COC(=O)C23)OCO4)cc(OC)c1O` (stereo partly specified) was tested, and the GI50 was 9.28 µM and the TGI was 75 µM and 92.4 µM. In the case of `CCc1nc(N)nc(N)c1-c1ccc([N+](=O)[O-])c(NCc2ccccc2)c1`, the TGI is reported as 38.7 µM. `O=c1c(-c2ccccc2)c(SCCN2CCCCCC2)n(-c2ccccc2)c(=S)n1-c1ccccc1` was tested, and the TGI was 27.2 µM. `COc1ccc(-c2cc(-c3ccc(Cl)cc3)c(C#N)c(=O)n2CCCCC(=O)Nc2ccccc2N)cc1` was tested, and the GI50 was 13.9 µM and the TGI was greater than 100 µM. With `O=C1NC(=S)NC(=O)C1C(c1ccc(Cl)cc1)C1C(=O)NC(=S)NC1=O` the TGI was greater than 100 µM. With `O=[N+]([O-])c1ccc(N=Nc2c(O)[nH]c3ccc([N+](=O)[O-])cc23)cc1` the TGI was 63.3 µM. With `N=C(N)c1ccc(-c2ccc(-c3ccc(Cl)cc3Cl)o2)cc1` the GI50 was 1.66 µM and the TGI was 3.05 µM. In the case of `COC1/C=C/OC2(C)Oc3c(C)c(O)c4c(c3C2=O)C(=O)C=C(NC(=O)/C(C)=C\C=C\C(C)C(OC=O)C(C)C(O)C(C)C(OC(C)=O)C1C)C4=O` (stereo unspecified), the TGI is reported as 45.4 µM. In the case of `O=C1CC(c2ccccc2Cl)C2(C(=O)NC(=O)NC2=O)C(c2ccccc2Cl)C1` (stereo unspecified), the TGI is reported as greater than 100 µM. Work on `Cc1ccc2c(c1C)CC1(Cc3c(C)ccc(C)c3C1=O)C2=O` (stereo unspecified) yielded a TGI greater than 100 µM. Work on `N/C(=N\OC(=O)c1ccccc1)C(C(=O)NOC(=O)c1ccccc1)C1CCCCC1` (stereo unspecified) yielded a GI50 of 15.1 µM and a TGI of 59.9 µM. Compound `O=C(Nc1ccc(OC(F)(F)F)cc1)c1sccc1NCc1ccnc2ccccc12` has a GI50 of 3.83 µM and a TGI greater than 87.9 µM. With `COc1cccc(N2C(=O)CS(=O)(=O)C2c2cccc(Oc3ccccc3)c2)c1` (stereo unspecified) the TGI was greater than 100 µM. With `CC1(C)N=C(N)N=C(N)N1c1ccc(CCc2ccccc2)c(Cl)c1` the GI50 was 0.0968 µM and the TGI was 19.6 µM. Compound `COCC#C[C@@]1(O)CCCCC1CC(OC)OC` (stereo partly specified) has a TGI greater than 100 µM. For `CSc1ccc(C2=Nn3c(nnc3-c3ccc(F)c(Cl)c3)SC2)cc1`, the GI50 was 26 µM and the TGI was greater than 100 µM. `COc1cc(/C=C2\CN(C)CC3=C2Nc2nc(SC)[nH]c(=O)c2C3c2cc(OC)c(OC)c(OC)c2)cc(OC)c1OC` (stereo unspecified) showed a GI50 of 6.6 µM and a TGI of 19.7 µM. `CSc1ccc(/C=C2\CNC/C(=C\c3ccc(SC)cc3)C2=O)cc1` was tested, and the GI50 was 150 mg/L and the TGI was > 371 µM and 150 µg/mL. With `CC(C)(C)c1cc(/C=C2/NC(=O)NC2=O)cc(C(C)(C)C)c1O` the TGI was 29.8 µM. Work on `Clc1ccc(OCc2nnc(COc3ccc(OCc4nnc(COc5ccc(Cl)cc5Cl)o4)c(Cl)c3)o2)c(Cl)c1` yielded a TGI greater than 100 µM. With `CC(C)CC(NC(=O)C(CCC(=O)OCc1ccccc1)NC(=O)OC(C)(C)C)C(=O)NC(COCc1ccccc1)C(=O)NC(Cc1ccccc1)C(=O)Oc1c(Cl)c(Cl)c(Cl)c(Cl)c1Cl` (stereo unspecified) (Boc-E(OBn)LS(Bn)F-X24; configuration not given here) the TGI was greater than 100 µM. `CCN(c1ccc(CO)c(Cl)c1)C(C)c1ccc(F)cc1` (stereo unspecified) gave a GI50 of 14.2 µM and a TGI of 27.6 µM.
